# In publication PMC5515408:
# Some of the results follow. At the low end of the ranking the order means little.
# Test system: MYC (p64) + MAX (p21), in MYC:MAX
# Assay: protein-binding microarray (anti-MAX antibody)
# Details: PBM: 15 mM Tris-HCl pH 7.5, 100 mM KCl, 0.075% NP40, 7.5 mM beta-mercaptoethanol, 375 ng/ul BSA, 8 ng/ul poly(dA-dT):(dA-dT), 550 ng complex, 60 min, room …; high values mean tight binding; double strand, one strand shown; sequences stand for … in CCGGC…TTAATAGCTAAGATTACTATATCGACG
row,Sequence,binding signal (log2 normalized fluorescence)
1,TGACACCATGTA,0.248
2,TGAGTAGTAGTA,-0.16
3,TGAACATTCGTA,0.164
4,TGAGATAACGTA,0.034
5,TGACGTATGGTA,0.28
6,TGAATCCCTGTA,0.136
7,TGAGTCACAGTA,0.0795
8,TGAAAGAACGTA,0.0771
9,CGACGAGTGGTA,0.229
10,TGACATCACGTA,0.49
11,TGACAAGTCGTA,-0.0633
12,TGACAGAACGTA,0.0477
13,TGACTGAAGGTA,0.041
14,TGACGTGGTGTA,0.243
15,TTTCAGGTGGTA,0.195
16,TGAAACGGGATA,0.0551
17,TGAAACTAAGTA,-0.0738
18,TGAGAGAGGGTA,-0.119
19,TGATCAGTGGTA,0.152
20,TGAAGTGCAGTA,0.196
21,TGAGATTTGGTA,-0.188
22,TGACAGAAAGTA,-0.0314
23,TGAAGGGCGGTA,0.109

row,Sequence,binding signal (log2 normalized fluorescence)
1,TTTCACATGGTA,0.504
2,TGAGGCAATGTA,0.116
3,TGATCCTTCGTA,-0.0978
4,TGATCTAGAGTA,-0.0994
5,TGACAAGATGTA,0.217
6,TGAGCGTGCGTA,0.326
7,TGAGATTAAGTA,-0.164
8,TGAAGTCTGGTA,0.162
9,TGACGCGGAGTA,0.127
10,TGACGCGGCGTA,0.201
11,TGAACCGAAGTA,0.0529
12,GAAGCTTTGGTG,-0.157
13,TGAATTCATGTA,0.297
14,TGAATCTGTGTA,-0.0948
15,TGAGTGATCGTA,0.194
16,TGAGTTCTTGTA,-0.272
17,TGATGGGGCGTA,0.129
18,TGAAGGCACGTA,0.12
19,TGACTACTAGTA,0.17
20,TGATGTAGGGTA,0.174
21,TGACATACGGTA,0.172
22,TGATTGTCTGTA,0.0975
23,TGACATGACGTA,0.368

row,Sequence,binding signal (log2 normalized fluorescence)
1,TGATGCGGCGTA,0.216
2,AAGTTTAAGCCG,0.00903
3,TGATATTGGGTA,-0.186
4,TGAGTAAAGGTA,-0.0241
5,TGACCGCTGGTA,0.0667
6,TGACCGACAGTA,0.152
7,TGAGCCCAGGTA,0.000247
8,TGAGAATGAGTA,0.0435
9,TGAGTACCAGTA,0.201
10,TGAGGGACTGTA,0.0339
11,TGAAATGCGGTA,0.511
12,TGAACGGCAGTA,0.0669
13,TAGGTCAGAGCC,-0.355
14,TGAGATGGCGTA,0.105
15,TGAAAGCCTGTA,0.107
16,TGAGGTACCGTA,0.125
17,TGATCTTCAGTA,0.0538
18,TGACAGTAAGTA,0.212
19,TGACTCTGAGTA,-0.0923
20,TGATAGCTTGTA,-0.0392
21,TGATACGTGTTG,0.282
22,TGACGGCTGGTA,0.237
23,TGATAAACAGTA,0.0767

row,Sequence,binding signal (log2 normalized fluorescence)
1,TGACTGGATGTA,0.15
2,TGAGGAAGGGTA,0.0351
3,TGATGTGGTGTA,0.237
4,TGACACAATGTA,0.33
5,TGATCAGTCGTA,-0.235
6,TGACAGTTAGTA,-0.0778
7,CCTCACGTGGTA,0.828
8,TGATCGGCGGTA,0.0519
9,TGACGTGAAGTA,0.0489
10,TGATCTTTCGTA,-0.0975
11,TGATTTCATGTA,0.198
12,TGAATCAGCGTA,-0.257
13,TGATTTGCAGTA,-0.154
14,TGACTCGTGCTG,0.41
15,CGGCTCGTGGTA,0.412
16,TGATGTCGCGTA,0.18
17,TGAACCCGAGTA,0.0729
18,TGATCAGAGGTA,0.0884
19,TGAGTGCGAGTA,0.0338
20,TGAAAACTTGTA,-0.0577
21,TGATTGCGGGTA,0.0152
22,TGACCACGCGTA,0.553
23,TTGTACGTGGTA,0.384

row,Sequence,binding signal (log2 normalized fluorescence)
1,TGAAATAACGTA,0.0565
2,GCTGGTAGCGCC,-0.0633
3,TGACAGCTTGTA,0.0423
4,TGACGGTATGTA,0.151
5,TGAATATATGTA,0.0567
6,TGAGGATAAGTA,-0.199
7,TGAAAAATAGTA,-0.136
8,TGACAAACGGTA,0.0333
9,TGATGGGCTGTA,0.0985
10,TGACTCGGGGTA,0.271
11,TGATAAACTGTA,0.0092
12,GTACACGTGGTC,0.89
13,TGAGGTTGGGTA,-0.0801
14,TGAGTGAACGTA,0.164
15,TGAACCCGTGTA,0.4
16,TGATTAACAGTA,-0.108
17,TTAAGCGTGGTA,0.561
18,TGAGGCCTGGTA,-0.0289
19,TGTCAGGTGCTA,0.38
20,TGAGCAACTGTA,0.128
21,TGAACGGACGTA,0.0519
22,TGAACTAGGGTA,0.0193
23,TGAAACCGCGTA,0.25

row,Sequence,binding signal (log2 normalized fluorescence)
1,TGAAACGAGGTA,0.314
2,TGAGAAGGAGTA,-0.0932
3,TGCCACGTGGAA,0.873
4,GGGCACGTGGTC,0.929
5,TGATCCGAGGTA,-0.0333
6,TGAGTGCAAGTA,0.268
7,TGATGTAAAGTA,-0.123
8,TGATCAAGAGTA,-0.0485
9,TGATTCTGGGTA,-0.191
10,TGAGCGTTCGTA,0.0308
11,TGAGCTCGCGTA,0.244
12,TGACCTCCAGTA,0.268
13,TGATATCATGTA,0.238
14,TGCCACGTCGTA,0.37
15,TGACTCGGCGTA,0.0225
16,TTTCACGTGGTA,0.847
17,TGATTATTCGTA,-0.191
18,TCTGACGTGGTA,0.473
19,TGAGGTGAAGTA,-0.0468
20,TGAACAAAGGTA,0.0742
21,TGAATTTACGTA,-0.111
22,TGACTTCTGGTA,0.00271
